Counter-ions that a name gives are not always drawn. ± gives the standard deviation of the averaged measurements. In all, about 2,000 compounds were measured (“relative cell viability vs DMSO, compound alone”: median about 1.1, lowest 2% from about 0.29 on). The list shows a part of the results.

The subject of the assay is TE10. Nature of the assay: relative cell viability vs DMSO, compound alone (fraction); TE10 is an esophageal squamous carcinoma line; higher = less cytotoxic. The conditions noted are these: 2 µM; 48 h. How it is done: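 TE10 ESCC cells (1,000/well, 384-well plates) were treated with Selleck bioactive library compounds at 2 uM alone for 48 h. Viability was read by CellTiter-Glo and expressed relative to DMSO wells. Two technical replicates (A, B).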
`Clc1cccc(CN=C2Nc3ccccc3NC23CCNCC3)c1` [Liproxstatin-1] gave a relative cell viability of 1.04 ± 0.024.
The same measure for `CC(CNC(=O)c1cccnc1)NC(=O)c1cccnc1` (configuration not stated) [Nicaraven]: 1.01 ± 0.097.
`CCCCc1ncc(/C=C(\Cc2cccs2)C(=O)O)n1Cc1ccc(C(=O)O)cc1` [Eprosartan Mesylate] registered a relative cell viability of 1.03 ± 0.073.
Next, `CN1CCCN(C(=O)c2cccc(-c3ccc(/C=C4/C(=O)Nc5ccc(Cl)cc54)o3)c2)CC1`: 0.882 ± 0.061; `CCCCCCCCOc1ccccc1C(=O)Nc1ccc(C(=O)OCC[N+](C)(CC)CC)cc1` [Otilonium Bromide]: 1.05 ± 0.046.
The same measure for `CN1CCN2c3ccccc3Cc3ccccc3C2C1` (configuration not stated) [Mianserin HCl]: 1.07 ± 0.094; for `COc1cccc(-c2cc(F)ccc2C2Cc3nc(N)nc(C)c3C(=O)N2)n1` (configuration not stated): 0.555 ± 0.066; for `O=c1cc(N2CCOCC2)oc2c(-c3ccccc3)cccc12`: 0.971 ± 0.072.
The same measure for `Cc1cnc(NC(=O)Nc2cc(Br)c(C)cc2OC[C@@H]2CNCCO2)cn1`: 0.627 ± 0.07; for `Cc1ccc(Sc2cncc3sc(C(N)=O)cc23)cc1`: 1.13 ± 0.071.
In turn, `Nc1cc(C(F)(F)F)c(-c2cc(N3CCOCC3)nc(N3CCOCC3)n2)cn1` [BKM120 (NVP-BKM120, Buparlisib)] yielded a relative cell viability of 0.469 ± 0.025.
`Cc1c(C(=O)Nc2ccc(N3C[C@@H](C)O[C@@H](C)C3)nc2)cccc1-c1ccc(OC(F)(F)F)cc1` [LDE225 (NVP-LDE225,Erismodegib)] came in with a relative cell viability of 0.972 ± 0.036.
Next, `OCC(CO)N[C@H]1C[C@](O)(CO)[C@@H](O)[C@H](O)[C@H]1O` [Voglibose]: 0.96 ± 0.042; `CCc1ccc(/C=C2/SC(=S)NC2=O)cc1`: 1.03 ± 0.016; `Cc1ccc(Nc2nccc(N(C)c3ccc4c(C)n(C)nc4c3)n2)cc1S(N)(=O)=O` [Pazopanib]: 0.946 ± 0.03.
Next, `Cc1ccc(Nc2nccc(N(C)c3ccc4c(C)n(C)nc4c3)n2)cc1S(N)(=O)=O` [Pazopanib HCl]: 1.18 ± 0.08; `COc1cc(Nc2ncc3c(n2)-c2ccc(Cl)cc2C(c2c(F)cccc2OC)=NC3)ccc1C(=O)O` [Alisertib (MLN8237)]: 1.07 ± 0.077.
The same measure for `CCCCC(=O)N(Cc1ccc(-c2ccccc2-c2nnn[nH]2)cc1)[C@H](C(=O)O)C(C)C` [Valsartan]: 1.2 ± 0.047; for `Cc1[nH]nc2ccc(-c3cncc(OC[C@@H](N)Cc4ccccc4)c3)cc12`: 0.5847 ± 0.0027; for `CC(C)[C@H](O)C(=O)N[C@@H](C)C(=O)N[C@@H]1C(=O)N(C)CCc2ccccc21`: 1.055 ± 0.0076.
For the compound `Nc1ccc(/N=N/c2ccccc2)c(N)n1` [Phenazopyridine HCl], the relative cell viability was determined as 1.03 ± 0.019.
The same measure for `CCC(=O)O[C@]1(C(=O)SCF)[C@H](C)C[C@H]2[C@@H]3C[C@H](F)C4=CC(=O)C=C[C@]4(C)[C@@]3(F)[C@@H](O)C[C@@]21C` [Fluticasone propionate]: 0.9349 ± 0.003.

For the origin of these results see the supplement of paper PMC10670038.
